The list shows a part of the results. Repeats are few or missing, and single values can be far off.
Experiments:
Experiment in all cases: cell count relative to DMSO control; melanoma cells; higher = more viable cells
Details in all cases: library dose: standard library concentration; 72 h
[1] = test system: G361
[2] = test system: IPC-298
[3] = test system: IST-MEL1
[4] = test system: LB2518-MEL
[5] = test system: LOXIMVI
[6] = test system: MEL-HO
[7] = test system: MZ2-MEL
[8] = test system: MeWo
[9] = test system: RPMI7951
[10] = test system: RVH-421
[11] = test system: SkMel28
[12] = test system: SkMel2
[13] = test system: SkMel30
[14] = test system: SkMel5
[15] = test system: UACC257
[16] = test system: UACC62
[17] = test system: WM115
[18] = test system: WM1716
[19] = test system: WM1745
[20] = test system: WM3526
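Note: cells treated in 1,536-well plates, then fixed and DAPI-stained, with nuclei counted from automated high-throughput microscope images.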

Structure (SMILES)	cell count [1]	cell count [2]	cell count [3]	cell count [4]	cell count [5]	cell count [6]	cell count [7]	cell count [8]	cell count [9]	cell count [10]	cell count [11]	cell count [12]	cell count [13]	cell count [14]	cell count [15]	cell count [16]	cell count [17]	cell count [18]	cell count [19]	cell count [20]
O=C(O)c1ccc2c(c1)nc(Nc1cccc(Cl)c1)c1ccncc12 + C[C@@H]1CCN(C(=O)CC#N)C[C@@H]1N(C)c1ncnc2[nH]ccc12 [CP690550] (first compound 2 µM, partner dose 5 µM)	79%	77.5%	83.1%	129%	40.3%	68.6%	95.3%	93.7%	100%	93.1%	90.9%	70.9%	77.4%	92.6%	101%	98.4%	157%	127%	75.6%	80.8%
Cc1cc(N2CCOCC2)cc2[nH]c(-c3c(NC[C@@H](O)c4cccc(Cl)c4)cc[nH]c3=O)nc12 + CN(C)S(=O)(=O)c1ccc2c(c1)/C(=C/c1cc3c([nH]1)CCCC3)C(=O)N2 [SU6656] (first compound 1 µM, partner dose 2 µM)	58.2%	88.3%	69.8%	63.7%	78.4%	72.6%	107%	52.3%	48.2%	79.4%	37.5%	73.1%	75.5%	46.5%	77.8%	92.5%	44.1%	50.6%	40.7%	64.8%
O=C(Nc1cc(C(F)(F)F)cc(C(F)(F)F)c1)c1cc(Cl)ccc1O + Nc1cccc2c1CN(C1CCC(=O)NC1=O)C2=O [lenalidomide] (first compound 0.08 µM, partner dose 5 µM)	95.6%	100%	103%	93.9%	117%	106%	106%	117%	90.7%	74.7%	101%	114%	118%	121%	103%	86.5%	132%	119%	126%	118%
O=C(Nc1cc(C(F)(F)F)cc(C(F)(F)F)c1)c1cc(Cl)ccc1O + Cn1sc(=O)n(Cc2ccccc2)c1=O [TDZD-8] (first compound 0.08 µM, partner dose 2 µM)	90.1%	102%	80.6%	85.3%	124%	86.3%	77.7%	103%	64%	103%	91.9%	103%	85.4%	80.7%	91%	68.8%	91.8%	114%	94.1%	99.1%
Cn1nnc2c(C(N)=O)ncn2c1=O [temozolomide] + COc1cc2ncnc(Nc3ccc(Oc4ccccc4)cc3)c2cc1OC [SrcI1] (first compound 10 µM, partner dose 10 µM)	81%	74%	83.3%	78.3%	92%	90.4%	75.9%	88.8%	53.1%	148%	34.5%	105%	83.4%	70.2%	87.7%	51.8%	62.5%	57.3%	53.8%	60.4%
O=C(O)c1ccc2c(c1)nc(Nc1cccc(Cl)c1)c1ccncc12 + Clc1ccc(Nc2nnc(Cc3ccncc3)c3ccccc23)cc1 [vatalanib] (first compound 2 µM, partner dose 10 µM)	52.3%	64.2%	73.9%	122%	49.7%	35.2%	82.4%	36.3%	73.8%	99.2%	89.4%	112%	111%	74.6%	74.3%	91.2%	108%	96.5%	77.4%	86.2%
Cn1nnc2c(C(N)=O)ncn2c1=O [temozolomide] + O=C(Nc1cccc(Cl)c1)Nc1ncc(CCNc2ncnc3ccsc23)s1 [SNS314] (first compound 10 µM, partner dose 0.004 µM)	79.2%	77.6%	43.5%	70.2%	70.4%	78.4%	78.6%	57.7%	71%	74%	54.3%	94%	84.5%	110%	77.5%	87.7%	34.7%	45%	80.1%	69.3%
O=C(Nc1cc(C(F)(F)F)cc(C(F)(F)F)c1)c1cc(Cl)ccc1O + CCCS(=O)(=O)Nc1ccc(F)c(C(=O)c2c[nH]c3ncc(Cl)cc23)c1F [PLX4720] (first compound 0.08 µM, partner dose 0.4 µM)	77.9%	87.8%	77.1%	84.5%	91.7%	78.4%	80.4%	93.2%	122%	82.3%	57.7%	92.6%	92.5%	79.3%	104%	56.8%	65.5%	66.6%	87.3%	66.3%
O=C(O)c1ccc2c(c1)nc(Nc1cccc(Cl)c1)c1ccncc12 + C=C(c1ccc(C(=O)O)cc1)c1cc2c(cc1C)C(C)(C)CCC2(C)C [Bexarotene] (first compound 2 µM, partner dose 10 µM)	58.8%	54.7%	70.7%	103%	55.1%	57.9%	63.8%	71.4%	68.4%	82.5%	58.7%	66.9%	74.2%	77.9%	85.1%	57.7%	70.8%	91.2%	54.4%	66.1%

Source: the supplement of paper PMC4604168 (melanoma cell lines)
